Measured values from PubChem BioAssay AID652104 (National Center for Advancing Translational Sciences (NCATS), 2013).
Hit rate of the full screen: of about 410,000 compounds, about 7,200 (1.8%) were called active. The shares of active, inactive and inconclusive entries below differ from those in the screen. Calls come from the whole dose curve; as a rule, active = well fitted activation curve with a large enough effect; inconclusive = small, poorly fitted or top-dose-only effect, or another doubt; inactive = no such curve, though single readings can be large or run the other way. No potency is given beside an inconclusive call; the fits are too rough.

Test: qHTS of TDP-43 Inhibitors; note: nearly all actives have a fitted effect of over 50% in size; for growth rescue (activation): % of control where 0% means no effect
Details: TDP-43 expressing yeast growth rescue, BacTiter-Glo, 24 h; growth rescue (activation): at 46.1 µM (top of the series) unless noted
Outline: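 Yeast cells expressing TDP-43 under galactose induction are exposed to compounds for 24 hr at 30 deg C. BacTiter-Glo luminescence measures growth, so protective compounds score as activators.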
Potency is the fitted concentration of half-maximal effect; tags give direction and shape of the fitted curve.

SMILES | Potency | growth rescue (activation)
O=C(O)c1ccc(OCC(F)(F)F)nc1 | inconclusive [activator, single point] | –
O=C(COC(=O)c1ccc(F)cc1)NCCCc1ccccc1 | inconclusive [activator, partial curve] | –
Cc1ccc2sc(NNC(=O)C3COc4ccccc4O3)nc2c1C (stereo not given) | active: 7.08 µM | –
CC(/C=N/NC(=O)Cc1cccs1)=C\c1ccco1 | inconclusive [activator, partial curve] | –
Cc1ccccc1Nc1nc(-c2sc(NC(=O)c3ccco3)nc2C)cs1 | inconclusive [activator, partial curve] | –
CC(C)(C)NC(=O)NC(=O)COc1ccc(Br)cc1Br | active: 28.2 µM | –
Oc1ccc(Br)cc1-c1cc(-c2ccccc2F)[nH]n1 | inconclusive [activator, full curve, poor fit] | –
CCOC(=O)/C=C/C(=O)OCC(=O)NC(c1ccccc1)c1ccccc1 | inconclusive [activator, single point] | –
CCC(=O)Oc1ccc(-c2nc3ccccc3c(=O)o2)cc1 | active: 3.98 µM | –
O=C(c1ccco1)N1CCN(C(=O)c2sccc2-c2ccccc2)CC1 | inconclusive [activator, single point] | –
O=C(N/N=C/c1ccc[nH]1)c1ccccc1OCc1ccccc1Cl | inconclusive [activator, single point] | –
Fc1cccc(Cl)c1Cn1nnc2c(-n3ccnc3)ncnc21 | inconclusive [activator, single point] | –
COc1ccc(CNc2ncnc3c2c(-c2ccccc2)cn3-c2ccccc2)cc1 | inconclusive [activator, partial curve] | –
Cc1ccc(Nc2nc(N/N=C/c3c[nH]c4ccccc34)nc(N3CCOCC3)n2)cc1 | inconclusive [activator, single point] | –
Cc1ccc(S(=O)(=O)N2CCN(C(=O)COC(=O)c3cccc(Cl)c3)CC2)c(C)c1 | inconclusive [activator, single point] | –
O=C1C=CC(=O)N1c1ccc(N2CCCCC2)cc1 | – | inconclusive: -93.1% [activator]
COc1ccc(C(=O)NNC(=S)NC(=O)c2ccco2)cc1 | – | inconclusive: -45.8% [activator]
Cc1cccc(N2C(=O)CCSC23C(=O)N(Cc2ccc(F)cc2)c2ccccc23)c1 (stereo not given) | inconclusive [activator, single point] | –
CC(C)c1ccc(/C=N/Nc2ccc(C(=O)O)cc2)cc1 | active: 11.2 µM | –
O=C(c1ccc2c(Cl)c3c(nc2c1)CCCC3)N1CCN(c2cccc(Cl)c2)CC1 | inconclusive [activator, full curve, poor fit] | –
CCc1ccc(-c2ccc(C(=O)Oc3ccc(Br)cc3)cc2)nc1 | inconclusive [activator, partial curve] | –
O=C(COC(=O)c1ccccc1Cl)NC1CCCCCC1 | inconclusive [activator, partial curve] | –
CCCn1c2ccccc2c2cc(C(=O)O)ccc21 | active: 6.31 µM | –

SMILES | Potency | growth rescue (activation)
O=C(COC(=O)/C=C/c1ccco1)NCc1ccccc1Cl | inconclusive [activator, single point] | –
O=C(CC1(O)C(=O)N(CCc2ccccc2)c2ccc(Br)cc21)c1ccccc1O (stereo not given) | – | inconclusive: -49.9% [activator]
CC1=C(C(=O)OC(C)C)C(c2ccc(O)cc2)NC(=O)N1 (stereo not given) | inactive | –
COc1ccccc1C(C(=O)NC1CCCC1)N(C(=O)c1csnn1)C1CC1 (stereo not given) | inactive | –
COc1ccccc1CNC(=O)CCCC(=O)n1nc(C)c2ccccc21 | inconclusive [activator, single point] | –
O=C1c2cccc(-c3ccc(C(F)(F)F)cc3)c2C2CCCCN12 (stereo not given) | inconclusive [activator, partial curve] | –
N#Cc1c(N)oc(-c2ccc3c(c2)OCO3)c1-c1ccc2c(c1)OCO2 | inactive | –
Cc1ccc2nc(N3CCN(c4cccc(C)c4C)CC3)c3nnnn3c2c1 | inconclusive [activator, partial curve, poor fit] | –
CC(C)(C)C(=O)CCN1C(=O)C2(OCCO2)c2ccccc21 | inconclusive [activator, partial curve] | –
CCOC(=O)C1CCN(S(=O)(=O)c2cc(-c3cc(C)no3)ccc2C)CC1 | inactive | –
CC(/C=N/n1c(COc2ccccc2)n[nH]c1=S)=C\c1ccccc1 | active: 11.2 µM | –
CCOC(=O)c1sc2nc(C)nc(NCc3ccc(Cl)cc3)c2c1C | inconclusive [activator, partial curve, poor fit] | –
CCOc1ccc(NC(=O)COc2ccc3c(c2)OCO3)cc1 | inconclusive [activator, partial curve] | –
CC(=O)N(c1cccc(C)c1)C1SC(=O)N(c2ccccc2)C1=O (stereo not given) | inconclusive [activator, partial curve] | –
COc1ccc(CNC(=O)C[C@H]2C[C@H](C(=O)N(C(C)C)C(C)C)[C@@]3(C)c4[nH]c5ccc(Cl)cc5c4CCN3C2=O)cc1OC | active: 12.6 µM | –
CC(=O)c1ccc(NC(=O)NCCc2c[nH]c3ccccc23)cc1 | inactive | –
Cc1cc2ncn(/N=C/c3ccc([N+](=O)[O-])s3)c2cc1C | active: 12.6 µM | –
COCCNc1nc(NCc2ccccc2)nc2ccsc12 | inconclusive [activator, full curve] | –
CCc1cccc(NCc2ccccc2-c2nnc(-c3ccccc3Cl)o2)c1 | inactive | –
O=C(CCSc1ccc(Cl)cc1)N1CCN(c2ccc(O)cc2)CC1 | inconclusive [activator, single point] | –
CC(C)CC(=O)NC(=S)Nc1cccc2nsnc12 | inconclusive [activator, partial curve] | –
CC(C)c1ccc(C(=O)CSc2ncn[nH]2)cc1 | inconclusive [activator, single point] | –
